Data: PMC4336329 (PLoS ONE, 2015)
About 14,000 (4.5%) of roughly 310,000 compounds showed an effect of 50% or more. The effect is printed as a negative number. This is one part of the list.

Each compound was assayed against human ether-à-go-go-related gene (hERG) potassium channel (human, UniProt Q12809) (assay: primary screen, population patch clamp on CHO cells stably expressing hERG).
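Also: peak tail current of the secondary pulse compared with the same well before compound.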

Chain of human ether-à-go-go-related gene (hERG) potassium channel (Q12809 whole entry, looked up): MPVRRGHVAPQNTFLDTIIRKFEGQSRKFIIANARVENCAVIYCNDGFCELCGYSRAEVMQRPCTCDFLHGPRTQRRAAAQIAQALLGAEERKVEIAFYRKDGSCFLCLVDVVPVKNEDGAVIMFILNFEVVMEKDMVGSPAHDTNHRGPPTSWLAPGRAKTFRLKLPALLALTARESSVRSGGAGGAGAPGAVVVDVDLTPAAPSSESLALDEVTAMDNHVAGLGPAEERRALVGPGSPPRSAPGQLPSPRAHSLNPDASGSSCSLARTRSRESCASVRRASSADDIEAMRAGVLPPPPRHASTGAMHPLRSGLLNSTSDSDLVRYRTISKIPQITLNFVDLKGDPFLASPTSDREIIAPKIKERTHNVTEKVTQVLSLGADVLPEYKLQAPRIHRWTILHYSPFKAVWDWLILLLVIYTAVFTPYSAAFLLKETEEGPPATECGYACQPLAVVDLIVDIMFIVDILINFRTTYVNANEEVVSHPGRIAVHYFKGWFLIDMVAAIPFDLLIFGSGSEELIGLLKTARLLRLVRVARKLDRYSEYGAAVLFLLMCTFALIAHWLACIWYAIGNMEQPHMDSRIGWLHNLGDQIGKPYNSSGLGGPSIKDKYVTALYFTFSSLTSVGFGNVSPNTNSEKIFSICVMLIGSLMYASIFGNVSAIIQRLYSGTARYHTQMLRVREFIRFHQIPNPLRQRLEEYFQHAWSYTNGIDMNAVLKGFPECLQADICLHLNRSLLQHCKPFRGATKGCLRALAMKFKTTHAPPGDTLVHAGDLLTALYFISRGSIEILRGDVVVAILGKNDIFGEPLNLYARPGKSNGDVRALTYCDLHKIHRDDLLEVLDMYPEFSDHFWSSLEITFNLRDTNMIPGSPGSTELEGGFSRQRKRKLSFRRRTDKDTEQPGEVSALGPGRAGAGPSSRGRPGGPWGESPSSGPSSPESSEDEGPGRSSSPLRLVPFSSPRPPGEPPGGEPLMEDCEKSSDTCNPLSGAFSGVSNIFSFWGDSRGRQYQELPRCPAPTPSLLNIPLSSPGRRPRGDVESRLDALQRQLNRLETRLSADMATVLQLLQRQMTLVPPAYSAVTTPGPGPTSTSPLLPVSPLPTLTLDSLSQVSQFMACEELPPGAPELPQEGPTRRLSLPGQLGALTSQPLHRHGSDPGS

SMILES	hERG current change (%, negative = inhibition) at 10uM
c1ccc(CC2CCN(C3=Nc4cccc5cccc3c45)CC2)cc1	-80%
Cc1csc(NC(=O)c2ccccc2O)n1	-12.7%
CC1CCCCN1S(=O)(=O)c1ccc(C(=O)Nc2sccc2C(N)=O)cc1 (centres unmarked)	4.13%
O=C(COc1ccc(S(=O)(=O)N2CCCC2)cc1)N1CCN(c2ccccc2F)CC1	-32.3%
O=C(NNS(=O)(=O)c1ccccc1)C1CCN(S(=O)(=O)c2ccccc2)CC1	11%
COC(=O)c1ccc(CSc2n[nH]c(-c3ccccc3)n2)o1	20.8%
CC(CCc1ccccc1)NC(=O)c1nnc(Cc2ccc(Cl)cc2)o1 (centres unmarked)	15.3%
N#CCC(=O)c1ccccc1Oc1ccc(Cl)cc1	8.42%
O=C(O)COc1ccccc1/C=N/NC(=O)c1cc(-c2ccccc2)nc2ccccc12	13.5%
COc1cccc(NC(=O)COC(=O)Cn2c(C)csc2=O)c1	3.45%
CNC(=O)C1CCC(=O)N1Cc1ccccc1Cl (centres unmarked)	8.18%
CCC(=O)N1CCN(c2ccc(NC(=O)COc3ccccc3Cl)cc2)CC1	-15.6%
CC1(CCc2ccccc2)NC(=O)N(CC(=O)O)C1=O (centres unmarked)	-0.692%
COc1ccc(CN(C(=O)CN2C(=O)c3ccccc3S2(=O)=O)C(C(=O)NCC2CCCO2)c2ccncc2)cc1 (centres unmarked)	-10.3%
Cn1c(N)c(C(=O)CSc2nnc(Cc3cccs3)n2C2CC2)c(=O)n(C)c1=O	-13.3%
CN(C)C(=O)CSc1nnc(C23CC4CC(CC(C4)C2)C3)o1	-8.75%
COc1ccc(OCC(=O)N2CCN(c3nnc(-c4ccccc4)c4ccccc34)CC2)cc1	-64.4%
Cc1ccccc1C(=O)NCC(=O)NNC(=O)c1cccc(Cl)c1	5.03%
COCCN1Cc2cccc(C(=O)Nc3ccccc3OC)c2C1=O	-18.7%
COC(=O)c1ccc(NC(=O)CSc2nc(N)c(NC(=O)c3ccc(Br)o3)c(=O)[nH]2)cc1	20.8%
CC(C)NC(=O)CSc1nnc(-c2ccc(C(C)(C)C)cc2)n1C	-7.38%
CCOc1ccc(S(=O)(=O)N(CC(=O)O)c2ccc(C)cc2)cc1	1.4%

SMILES	hERG current change (%, negative = inhibition) at 10uM
Cc1ccc(NC(=O)NN(C)c2c(Cl)c(Cl)nn2C)cc1	-1.87%
CC(NC(=O)CCSc1nc(-c2ccc3c(c2)OCO3)cc(C(F)(F)F)n1)c1ccccc1 (centres unmarked)	11.4%
CCOC(=O)C1(CCOC)CCN(C(=O)Cc2ccc3ccccc3c2)CC1	-0.72%
CCc1ccc(NC(=O)CCn2ccnc2C)cc1	-21.9%
Cn1c(C(=O)OC(C(=O)NC2CCCC2)c2ccncc2)cc2sccc21 (centres unmarked)	-1.94%
Cc1nn(-c2c(Cl)cc(Cl)cc2Cl)c(=O)c2ccccc12	-0.844%
COC(=O)C1=C(CCc2ccccc2)NC(=O)NC1c1ccc(Br)cc1 (centres unmarked)	-11.9%
CC(=O)c1ccc(NC(=O)CSc2nnc(-c3ccco3)c(-c3ccco3)n2)cc1	-33%
Cc1cc(NC(=O)CSc2ccc3ccccc3c2)no1	-33.9%
Cc1ccccc1C(=O)Nc1nnc(-c2cccnc2)o1	18.4%
C#CC[N+]1(CC#Cc2cccc3ccccc23)CCOCC1.[Br-]	12.9%
CC1=NN(c2ccccc2)C(=O)/C1=C/C=C/C=C/N(C)C	10.9%
O=C(CCn1nc(-c2ccc(Cl)cc2)ccc1=O)NCc1ccccn1	-32%
CCOc1ccc(CCNC(=O)CN(C)S(=O)(=O)c2cccc3nsnc23)cc1OCC	-9.79%
COc1cc(NC(=O)c2ccc(Br)o2)ccc1NC(=O)C(C)C	-11.7%
O=S(=O)(NCc1ccc(Cl)cc1Cl)c1cccs1	-30.5%
CNC(CC(C)C)C(=O)NC1C(=O)NC(CC(N)=O)C(=O)NC2C(=O)NC3C(=O)NC(C(=O)NC(C(=O)O)c4cc(O)cc(O)c4-c4cc3ccc4O)C(O)c3ccc(c(Cl)c3)Oc3cc2cc(c3OC2OC(CO)C(O)C(O)C2OC2CC(C)(N)C(O)C(C)O2)Oc2ccc(cc2Cl)C1O.Cl.O (centres unmarked)	-0.925%
Cc1cc(-n2ccc(=O)[nH]c2=O)nc(-c2ccccc2)n1	-16.2%
O=C(NC1C2CC3CC(C2)CC1C3)C1CCCCC1 (centres unmarked)	7.35%
Cc1ccc2c(c1)c(C1=c3ccccc3=NC1=O)c(O)n2C	17.1%
COc1ccc(C(CNC(=O)c2cc(C)oc2C)N2CCOCC2)cc1 (centres unmarked)	-3.8%
CC1=C(C(=O)OCc2ccccc2)C(c2ccccc2OS(=O)(=O)c2ccccc2[N+](=O)[O-])NC(=O)N1CCCC(=O)O (centres unmarked)	-4.46%

SMILES	hERG current change (%, negative = inhibition) at 10uM
COc1ccccc1C(=O)Nc1cccc(SC)c1	-7.44%
Cc1ccc(OCC(=O)N2CCN(Cc3cccnc3)CC2)cc1.O=C(O)C(=O)O	17.7%
Cc1ccc(Cl)c(N/C=C/C(=O)c2ccccc2)c1	11.4%
Cc1ccc(C(=O)NC(=S)Nc2ccc(N3CCN(C(=O)c4ccco4)CC3)cc2)cc1	17.1%
CN1CC(=O)NC1=NC(=O)c1ccc(Cl)c(S(=O)(=O)N2CCCCCC2)c1	-34.2%
COc1cc(/C=C2/NC(=O)N(Cc3ccccc3F)C2=O)ccc1O	-1.04%
CCCCN(C(=O)CC1CCCC1)c1c(N)n(CCCC)c(=O)[nH]c1=O	5.24%
COc1ccc(-n2nc(C(=O)N(C)C)nc2-c2ccccc2)cc1	5.39%
CN(C)Cc1c(O)ccc2c(=O)c(-c3ccccc3)c(C(F)(F)F)oc12	5.31%
COc1ccc(N2C(=NC(=O)C(C)Oc3ccccc3)SC3CS(=O)(=O)CC32)cc1 (centres unmarked)	-36.6%
CCN(CC)C(=O)Cn1cc(C(=O)C(=O)N2CCN(c3ccc(OC)cc3)CC2)c2ccccc21	16.1%
Cc1cc(C(=O)O/N=C(\N)c2ccc(C(C)(C)C)cc2)no1	13.6%
CCCCCCn1c(SCC(=O)OC)nc2c1c(=O)[nH]c(=O)n2C	-70.1%
O=[N+]([O-])c1cc(C(F)(F)F)ccc1Sc1ccc2ccccc2n1	13.3%
O=c1[nH]cnc2cc(-c3ccc(Br)cc3)sc12	12.3%
CCCOc1ccc(Cn2c(=O)oc3ccc(C)cc32)cc1OC	4.73%
COc1ccc(CN2C(=O)CSCC2=O)cc1OC	12.1%
CC(=O)CCc1ccccc1	2.76%
CCN1CCN(C(=O)Cn2nc(-c3ccc(Cl)cc3)ccc2=O)CC1	2.03%
O=C(COc1coc(CN2CCN(c3ccc(F)cc3)CC2)cc1=O)NCC1CCCO1 (centres unmarked)	10.2%
Cc1nc2ccccn2c1C(=O)NNC(=O)Nc1ccccc1	10.2%
CCc1nnc(NC(=O)CSc2nc(C)c3c(c2C#N)CCCC3)s1	9.44%

SMILES	hERG current change (%, negative = inhibition) at 10uM
C/C(CC(=O)NCc1ccccc1)=N\NC(=O)c1cnccn1	-8.01%
CN1CCC(=O)N(CCN=[N+]=[N-])CC1	22.9%
COc1c2ccoc2c(OC(C)=O)c2oc(C)cc(=O)c12	26.5%
CN1C(=O)C(C)(C)c2cc(S(=O)(=O)N3CCC(C(=O)NCc4ccc(Cl)cc4)CC3)ccc21	-11.3%
O=C(O)Cn1nnc2ccccc21	-3.4%
CN(C)CC#Cc1cncc(C(=O)NNC(=O)Nc2ccc(Cl)cc2)c1	17.7%
COc1ccc(C2CCCN2C(=S)Nc2c(C)cccc2C)cc1OC (centres unmarked)	5.97%
COc1c(C)cc(Br)cc1C(=O)Nc1ccc(S(N)(=O)=O)cc1	18.9%
CCc1ccc2[nH]c(=O)c(CN(Cc3ccc4c(c3)OCO4)C(=O)c3ccco3)cc2c1	-22.7%
CSc1ccc(S(=O)(=O)NC2CC3CCC2C3)cc1 (centres unmarked)	8.85%
CC(C)(C)n1c(O)c2ccc(C(=O)N=NC(=O)c3ccccc3)cc2c1O	5.48%
CC(C)CNC(=O)CSc1nnc2ccccn12	14.6%
CCOC(=O)CC(NC(=O)c1cc2cc(Br)ccc2oc1=O)c1cccc([N+](=O)[O-])c1 (centres unmarked)	-27.5%
Cc1c(CC(=O)O)c(=O)oc2c(C)c(OCc3ccc(F)cc3F)ccc12	30.9%
CCCc1nnc(NC(=O)CCC(=O)N2CCN(Cc3ccc(Cl)cc3)CC2)s1	-12.9%
CCn1c(=O)n(CC)c2cc(N3CCCC3)c(NC(=O)c3cc(Cl)ccc3OC)cc21	10.7%
CCC(C)NC(=O)C1(O)c2ccccc2NC(=O)N1c1ccc(C)c(C)c1 (centres unmarked)	19.9%
O=C(NNC(=O)c1ccc2nc[nH]c2c1)c1ccccc1	14.8%
Br.CCn1c(-c2cc(OC)ccc2OC)csc1=Nc1c(C)n(C)n(-c2ccccc2)c1=O	9.46%
CCCCc1nnc(SCC(=O)Nc2nccs2)n1C	2.44%
